± gives the standard deviation of the averaged measurements. Laboratory Escherichia coli strains with one amino-acid change in an essential protein, pooled on minimal glucose agar with carbenicillin or gentamicin at twice the control MIC (plus kanamycin and chloramphenicol for the plasmids), 48 h. Fold change of barcode share against drug-free plates; higher = less susceptible. Active = above 20 in both replicates (the paper's putatively resistant). '<' = one read or none on drug, '>' = one read or none on a drug-free plate. Shares are relative, so most strains fall below 1 when a few take over. Listed are strains with at least 15 reads on both drug-free plates, and hits; most hits rest on fewer reference reads. Replicate rank correlation about 0.5. Edits are read from barcodes.
B1: cysH; a variant is named by its letters at X, in order (parent)
chain: MSKLDLNALNELPKVDRILALAETNAELEKLDAEGRVAWALDNLPGEYVLSSSFGIQAAVSXHLXNQIRPDIPVILTDTGYLFPETYRFIDELTDKLKLNLKVYRATESAAWQEARYGKLWEQGVEGIEKYNDINKVEPMNRALKELNAQTWFAGLRREQSGSRANLPVLAIQRGVFKVLPIIDWDNRTIYQYLQKHGLKYHPLWDEGYLSVGDTHTTRKWEPGMAEEETRFFGLKRECGLHEG
B2: lptF; a variant is named by its letters at X, in order (parent)
chain: MIIIRYLVRETLKSQLAILFILLLIFFCQKLVRILGAAVDGDIPANLVLSLLGLGVPEMAQLILPLSLFLGXLMTLGKLYTESEITVMHACGLSKAVLVKAAMILAVFTAIVAAVNVMWAGPWSSRHQDEVLAEAKANPGMAALAQGQFQQATNGSSVLFIESVDGSDFKDVFLAQIRPKGNARPSVVVADSGHLTQLRDGSQVVTLNQGTRFEGTALLRDFRITDFQDYQAIIGHQAVALDPNDTDQMDMRTLWNTDTDRARAELNWRITLVFTXFXXALXXXPLSVVNPRQGRVLSMLPAMLLYLLFFLIQTSLKSNGGKGKLDPTLWMWTVNLIYLALAIVLNLWDTVPVRRLRASFSRKGAV

Variants of: B1
Assay: barcode share on antibiotic plates over drug-free plates; higher = less susceptible
Settings: with Escherichia coli (laboratory strain); antibiotic: carbenicillin; 2× MIC (3.1 µg/mL)
Procedure: (§1)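 A pool of E. coli strains, each edited to carry one amino-acid change in an essential protein, was grown for 48 h on minimal glucose agar with or without antibiotic; strain barcodes were sequenced; mean of two replicates.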

With LV V169A as the variant, how does the “fold change of barcode share” value read?
Its value is 0.453 ± 0.068.

For LV V169P, which “fold change of barcode share” value is on record?
Its value is 0.513 ± 0.12.

With LV V169W as the variant, how does the “fold change of barcode share” value read?
Its value is 0.527 ± 0.077.

How did the “fold change of barcode share” value turn out when LW was run?
Its value is 0.709 ± 0.24.

Same assay, conditions: with Escherichia coli (laboratory strain); antibiotic: gentamicin; 2× MIC (MIC 0.45 µg/mL)

With LV V169A as the variant, how does the “fold change of barcode share” value read?
Its value is 0.00944 ± 0.0092.

With LV V169P as the variant, how does the “fold change of barcode share” value read?
Its value is 0.00887 ± 0.0096.

LV V169W was tested. Which “fold change of barcode share” value did it give?
Its value is 0.016 ± 0.011.

LW was tested. Which “fold change of barcode share” value did it give?
The value was 0.0278 ± 0.012.

Variants of: B2
Assay: as above
Settings: with Escherichia coli (laboratory strain); antibiotic: carbenicillin; 2× MIC (3.1 µg/mL)
Procedure: as §1

Which “fold change of barcode share” value does the source give for LAMMMVV here?
Its value is 0.284 ± 0.12.

Which “fold change of barcode share” value does the source give for LDMMMVV here?
Its value is 0.457 ± 0.18.

With LVAMMVV as the variant, how does the “fold change of barcode share” value read?
The value was 1.3 ± 1.7.

How did the “fold change of barcode share” value turn out when LVDMMVV was run?
The value was 0.188 ± 0.0056.

Which “fold change of barcode share” value does the source give for LVMDMVV here?
Its value is 0.463 ± 0.16.

For LVMMDVV, which “fold change of barcode share” value is on record?
Its value is 0.213 ± 0.17.

Which “fold change of barcode share” value does the source give for LVMMMAV here?
Its value is 0.218 ± 0.032.

With LVMMMPV as the variant, how does the “fold change of barcode share” value read?
Its value is 0.252 ± 0.18.

Which “fold change of barcode share” value does the source give for LVMMMQV here?
Its value is 0.377 ± 0.058.

How did the “fold change of barcode share” value turn out when LVMMMVA was run?
The value was 0.287 ± 0.073.

Which “fold change of barcode share” value does the source give for AVMMMVV here?
The value was 0.839 ± 0.6.

WVMMMVV was tested. Which “fold change of barcode share” value did it give?
Its value is 0.305 ± 0.23.

Which “fold change of barcode share” value does the source give for QVMMMVV here?
The value was 0.202 ± 0.0032.

With DVMMMVV as the variant, how does the “fold change of barcode share” value read?
The value was 0.563 ± 0.39.

PVMMMVV was tested. Which “fold change of barcode share” value did it give?
Its value is 0.346 ± 0.11.

How did the “fold change of barcode share” value turn out when LVMMMVW was run?
Its value is 0.26 ± 0.012.

LVMMPVV was tested. Which “fold change of barcode share” value did it give?
Its value is 0.2082 ± 0.0012.

LVMMQVV was tested. Which “fold change of barcode share” value did it give?
Its value is 0.313 ± 0.018.

With LVMMWVV as the variant, how does the “fold change of barcode share” value read?
Its value is 0.239 ± 0.14.

For LVMPMVV, which “fold change of barcode share” value is on record?
Its value is 0.267 ± 0.052.

How did the “fold change of barcode share” value turn out when LVMQMVV was run?
The value was 0.242 ± 0.013.

LVMWMVV was tested. Which “fold change of barcode share” value did it give?
The value was 0.279 ± 0.077.

LVPMMVV was tested. Which “fold change of barcode share” value did it give?
Its value is 0.166 ± 0.027.

For LVQMMVV, which “fold change of barcode share” value is on record?
Its value is 0.14 ± 0.015.

Same assay, conditions: with Escherichia coli (laboratory strain); antibiotic: gentamicin; 2× MIC (MIC 0.45 µg/mL)

Which “fold change of barcode share” value does the source give for LAMMMVV here?
Its value is < 0.00579.

With LDMMMVV as the variant, how does the “fold change of barcode share” value read?
The value was 0.00753 ± 0.0042.

For LVAMMVV, which “fold change of barcode share” value is on record?
The value was 0.0172 ± 0.0097.

How did the “fold change of barcode share” value turn out when LVDMMVV was run?
Its value is 0.00718 ± 0.0025.

For LVMDMVV, which “fold change of barcode share” value is on record?
The value was 0.00883 ± 0.002.

With LVMMMAV as the variant, how does the “fold change of barcode share” value read?
The value was < 0.0208.

With LVMMMPV as the variant, how does the “fold change of barcode share” value read?
The value was < 0.0108.

Which “fold change of barcode share” value does the source give for LVMMMQV here?
The value was < 0.00914.

How did the “fold change of barcode share” value turn out when LVMMMVA was run?
Its value is < 0.00961.

How did the “fold change of barcode share” value turn out when AVMMMVV was run?
The value was 0.00714 ± 0.0049.

With WVMMMVV as the variant, how does the “fold change of barcode share” value read?
Its value is < 0.0171.

QVMMMVV was tested. Which “fold change of barcode share” value did it give?
Its value is < 0.0088.

With DVMMMVV as the variant, how does the “fold change of barcode share” value read?
The value was < 0.00734.

For PVMMMVV, which “fold change of barcode share” value is on record?
The value was < 0.0132.

LVMMMVW was tested. Which “fold change of barcode share” value did it give?
Its value is < 0.014.

With LVMMPVV as the variant, how does the “fold change of barcode share” value read?
Its value is < 0.0102.

LVMMQVV was tested. Which “fold change of barcode share” value did it give?
Its value is < 0.00887.

Which “fold change of barcode share” value does the source give for LVMMWVV here?
The value was < 0.0105.

How did the “fold change of barcode share” value turn out when LVMPMVV was run?
The value was 0.0105 ± 0.01.

How did the “fold change of barcode share” value turn out when LVMQMVV was run?
The value was < 0.00331.

With LVMWMVV as the variant, how does the “fold change of barcode share” value read?
The value was < 0.00841.

LVPMMVV was tested. Which “fold change of barcode share” value did it give?
The value was 0.0143 ± 0.014.

How did the “fold change of barcode share” value turn out when LVQMMVV was run?
Its value is < 0.00404.
